Reference: the supplement of paper PMC10126150
Values marked as one replicate rest on one cluster of the flow cell; about a third of the high ones do not repeat.

Each sequence was assayed on ATP (assay: switch fluorescence ratio, 500 uM ATP over buffer (Cy3 cluster intensity, sum of 5 cycles each) (fold (ratio)); higher = stronger signal-on switching upon ATP binding; sequences stand for … in TCGTCGGCAGCGTCAGATGTGTATAAGAGACAGTTTTTTTTTTTTTTTTTTTTTTTTT…TC). Details: aptamer strand: ATP DNA aptamer (quencher-CACCTGGGGGAGTATTGCGGAGGAAGG + anchor), 100 nM annealed; ATP concentration: 500 uM; one replicate.
Summary of the method: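 Five buffer/ATP imaging cycles were run on Cy3-labelled switching-strand clusters on a modified Illumina MiSeq flow-cell, with NaOH stripping and re-annealing between cycles. In each cycle, clusters annealed to 100 nM quencher-labelled ATP aptamer were imaged in selection buffer, then after 15 min with 500 uM ATP at 22 °C. Per cluster, the fluorescence ratio is summed target-cycle over summed buffer-cycle Cy3 intensity, averaged per switch-domain sequence. Only clusters within 100-1000 RFU were kept.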
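Note: ATP exposure 15 min at 22 °C before imaging.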

| Sequence | switch fluorescence ratio |
| --- | --- |
| CTGTATATTA | 1.04 |
| CTGTATGCAT | 1.06 |
| CTGTATTTG | 0.974 |
| CTGTCAACCC | 1.08 |
| CTGTCAACGT | 0.981 |
| CTGTCCACTG | 0.982 |
| CTGTCCTGT | 1.02 |
| CTGTCGACGG | 0.938 |
| CTGTCGGAGG | 0.99 |
| CTGTCTGTAA | 1.08 |
| CTGTGAGAAA | 0.984 |
| CTGTGAGTCG | 0.989 |
| CTGTGCGAGC | 1.03 |
| CTGTGCTGCG | 0.931 |
| CTGTGGAACA | 0.983 |
| CTGTGGACAA | 1.01 |
| CTGTGGTGC | 1.08 |
| CTGTGTAACA | 0.978 |
| CTGTGTGCTC | 1.1 |
| CTGTTATACG | 1.1 |
| CTGTTCTGGA | 1 |
| CTGTTTGATC | 0.962 |
| CTGTTTGCAA | 1.74 |
| CTGTTTTGCT | 0.956 |
| CTTAAAAGC | 0.995 |

| Sequence | switch fluorescence ratio |
| --- | --- |
| CTTAAATGGT | 1.01 |
| CTTAACATAG | 0.984 |
| CTTAAGGCGG | 0.977 |
| CTTAAGGCTG | 1.03 |
| CTTAAGTCGC | 1 |
| CTTAATGACG | 0.968 |
| CTTAATGGGT | 0.913 |
| CTTAATGTT | 0.957 |
| CTTACGACAA | 2.23 |
| CTTACGTTTC | 1.06 |
| CTTACTCGAC | 1.32 |
| CTTAGCAGGG | 1.04 |
| CTTAGCATTC | 2.24 |
| CTTAGCGTGA | 1.05 |
| CTTAGCTGCC | 1.15 |
| CTTAGGATCT | 0.935 |
| CTTAGGTCGA | 0.966 |
| CTTATAAAGG | 0.998 |
| CTTATAATAA | 1.02 |
| CTTATATGTA | 1.02 |
| CTTATCAAAA | 0.962 |
| CTTATCACAC | 1.01 |
| CTTATCGCGG | 0.988 |
| CTTATCGTGT | 0.995 |
| CTTATGAGG | 0.991 |

| Sequence | switch fluorescence ratio |
| --- | --- |
| CTTATGCCGC | 0.934 |
| CTTATGGGAG | 0.984 |
| CTTATGGTGC | 1.01 |
| CTTATTGTCT | 1.02 |
| CTTCACGCAT | 3.72 |
| CTTCAGAAC | 1.02 |
| CTTCAGCACG | 1.22 |
| CTTCAGCGCT | 1.03 |
| CTTCAGGGTA | 1.05 |
| CTTCATGCTC | 1.01 |
| CTTCATGGAG | 1.04 |
| CTTCATTAAG | 1.02 |
| CTTCCCGGAT | 1.29 |
| CTTCCTGGGG | 1.3 |
| CTTCGATACA | 1.04 |
| CTTCTAAAAC | 1.07 |
| CTTCTAACCC | 1.04 |
| CTTCTAGAAT | 1 |
| CTTCTAGGGA | 1 |
| CTTCTCGAGC | 1.08 |
| CTTCTTTTCC | 1.03 |
| CTTGAAACGG | 0.993 |
| CTTGACCGTT | 1 |
| CTTGATATGT | 1.03 |
| CTTGATTCAC | 0.99 |

| Sequence | switch fluorescence ratio |
| --- | --- |
| CTTGCACTTC | 1.06 |
| CTTGCATAGA | 0.995 |
| CTTGCCGAAG | 1.01 |
| CTTGCCGACA | 1.02 |
| CTTGCGTCGA | 0.994 |
| CTTGCTATTT | 1.02 |
| CTTGGAAAGA | 0.96 |
| CTTGGAGATT | 1.01 |
| CTTGGCCATA | 0.978 |
| CTTGGCTCAC | 1.06 |
| CTTGGGATTG | 0.985 |
| CTTGGGTAGC | 0.998 |
| CTTGGGTTC | 1.01 |
| CTTGGTAACG | 0.997 |
| CTTGGTCTGG | 0.98 |
| CTTGGTGACC | 1.03 |
| CTTGTACTGA | 0.995 |
| CTTGTAGAGT | 1.04 |
| CTTGTGGACC | 1.02 |
| CTTGTGGAGG | 1.01 |
| CTTGTGTCTG | 1.01 |
| CTTGTTAGT | 0.981 |
| CTTGTTATAG | 1.02 |
| CTTGTTTCAT | 0.999 |
| CTTTACTGC | 1.01 |

| Sequence | switch fluorescence ratio |
| --- | --- |
| CTTTAGAAGG | 0.923 |
| CTTTCACGAC | 1.02 |
| CTTTCACGTG | 1.01 |
| CTTTCCACCT | 1.16 |
| CTTTCCCAAG | 1.1 |
| CTTTCTCGCC | 1.06 |
| CTTTCTTGGG | 1.07 |
| CTTTGACAGC | 1.03 |
| CTTTGGATGT | 0.994 |
| CTTTGGTGGC | 0.999 |
| CTTTGTATAG | 1.17 |
| CTTTTAATTC | 0.998 |
| CTTTTATG | 0.981 |
| CTTTTATGGC | 1.05 |
| CTTTTATTCA | 0.966 |
| CTTTTCCGT | 1.06 |
| CTTTTCGAAA | 0.953 |
| CTTTTGGCCC | 1.04 |
| CTTTTTAAT | 1.09 |
| CTTTTTTCTT | 1 |
| GAAAAAAGC | 1.08 |
| GAAAAAGTAA | 1.01 |
| GAAAAGAGTA | 1.01 |
| GAAAAGTAGC | 1.02 |
| GAAAATACC | 1.49 |

| Sequence | switch fluorescence ratio |
| --- | --- |
| GAAAATGATT | 0.986 |
| GAAAATTATC | 1 |
| GAAACATATA | 0.999 |
| GAAACCGCTC | 2.6 |
| GAAACGTATA | 1.1 |
| GAAACTGTCG | 1.15 |
| GAAACTTTGA | 0.952 |
| GAAACTTTTT | 0.999 |
| GAAAGAAACA | 0.946 |
| GAAAGACGTG | 0.982 |
| GAAAGATCGG | 1.07 |
| GAAAGATTTC | 0.993 |
| GAAAGCCAGA | 0.958 |
| GAAAGCGGCC | 2.59 |
| GAAAGCGTAG | 1.03 |
| GAAAGGAACT | 0.982 |
| GAAAGGAGGA | 1.02 |
| GAAAGGCATG | 1.05 |
| GAAAGTAGAA | 0.954 |
| GAAAGTGAGC | 0.968 |
| GAAATCGGCA | 0.99 |
| GAAATCTATA | 1.02 |
| GAAATGCGTC | 1.05 |
| GAAATGGCGG | 1.02 |
| GAAATGGTAA | 1.04 |

| Sequence | switch fluorescence ratio |
| --- | --- |
| GAAATTATCT | 1.03 |
| GAACAAGGGT | 0.922 |
| GAACAAGTAA | 0.992 |
| GAACAAGTTG | 0.993 |
| GAACACGGCC | 1.13 |
| GAACAGGCAG | 0.987 |
| GAACCAGGCT | 0.939 |
| GAACCCTGTT | 0.991 |
| GAACCTCGGG | 0.96 |
| GAACGAGACT | 1.05 |
| GAACGCAAGA | 3.43 |
| GAACGCGGGG | 1.01 |
| GAACGGACCT | 1.37 |
| GAACGGGATG | 1.02 |
| GAACGTAACG | 1.09 |
| GAACGTACCC | 1.67 |
| GAACTATTTT | 1.02 |
| GAACTCAAGA | 1.04 |
| GAACTGGCGT | 0.96 |
| GAACTGGTCT | 1.01 |
| GAACTTAACA | 1.07 |
| GAACTTAATT | 1.02 |
| GAAGAATCAA | 0.985 |
| GAAGAATTGC | 0.998 |
| GAAGACATTA | 1.01 |

| Sequence | switch fluorescence ratio |
| --- | --- |
| GAAGAGGTGT | 1.06 |
| GAAGATTCGT | 0.969 |
| GAAGCAAGGG | 3.05 |
| GAAGCCTCCT | 1.02 |
| GAAGCTATA | 2.27 |
| GAAGCTGATA | 1.06 |
| GAAGCTTCAT | 1.03 |
| GAAGGATGCC | 1.03 |
| GAAGGCAGGA | 0.964 |
| GAAGGGAAAT | 0.981 |
| GAAGGGAAGT | 0.994 |
| GAAGGGCTCC | 1.04 |
| GAAGGTCGAG | 1.01 |
| GAAGTAAACC | 1.1 |
| GAAGTACGTT | 1.18 |
| GAAGTCAGGA | 0.987 |
| GAAGTGACTC | 1.11 |
| GAAGTGCGGC | 1.05 |
| GAAGTGGATC | 0.974 |
| GAAGTGTCGC | 1.01 |
| GAAGTTGAAT | 0.975 |
| GAAGTTGATC | 0.958 |
| GAATAATCGA | 1.02 |
| GAATACAGTG | 1.06 |
| GAATACGAG | 1.07 |
